Out of some 310,000 compounds screened, about 2,200 (0.71%) showed an effect of 50% or more. Effects have a minus sign here. The list shows a part of the results.

The values that follow come from PMC4336329 (PLoS ONE, 2015).

In the experiment the target is human ether-à-go-go-related gene (hERG) potassium channel (human, UniProt Q12809). Description: primary screen, population patch clamp on CHO cells stably expressing hERG.
human ether-à-go-go-related gene (hERG) potassium channel, sequence (Q12809 whole entry, looked up): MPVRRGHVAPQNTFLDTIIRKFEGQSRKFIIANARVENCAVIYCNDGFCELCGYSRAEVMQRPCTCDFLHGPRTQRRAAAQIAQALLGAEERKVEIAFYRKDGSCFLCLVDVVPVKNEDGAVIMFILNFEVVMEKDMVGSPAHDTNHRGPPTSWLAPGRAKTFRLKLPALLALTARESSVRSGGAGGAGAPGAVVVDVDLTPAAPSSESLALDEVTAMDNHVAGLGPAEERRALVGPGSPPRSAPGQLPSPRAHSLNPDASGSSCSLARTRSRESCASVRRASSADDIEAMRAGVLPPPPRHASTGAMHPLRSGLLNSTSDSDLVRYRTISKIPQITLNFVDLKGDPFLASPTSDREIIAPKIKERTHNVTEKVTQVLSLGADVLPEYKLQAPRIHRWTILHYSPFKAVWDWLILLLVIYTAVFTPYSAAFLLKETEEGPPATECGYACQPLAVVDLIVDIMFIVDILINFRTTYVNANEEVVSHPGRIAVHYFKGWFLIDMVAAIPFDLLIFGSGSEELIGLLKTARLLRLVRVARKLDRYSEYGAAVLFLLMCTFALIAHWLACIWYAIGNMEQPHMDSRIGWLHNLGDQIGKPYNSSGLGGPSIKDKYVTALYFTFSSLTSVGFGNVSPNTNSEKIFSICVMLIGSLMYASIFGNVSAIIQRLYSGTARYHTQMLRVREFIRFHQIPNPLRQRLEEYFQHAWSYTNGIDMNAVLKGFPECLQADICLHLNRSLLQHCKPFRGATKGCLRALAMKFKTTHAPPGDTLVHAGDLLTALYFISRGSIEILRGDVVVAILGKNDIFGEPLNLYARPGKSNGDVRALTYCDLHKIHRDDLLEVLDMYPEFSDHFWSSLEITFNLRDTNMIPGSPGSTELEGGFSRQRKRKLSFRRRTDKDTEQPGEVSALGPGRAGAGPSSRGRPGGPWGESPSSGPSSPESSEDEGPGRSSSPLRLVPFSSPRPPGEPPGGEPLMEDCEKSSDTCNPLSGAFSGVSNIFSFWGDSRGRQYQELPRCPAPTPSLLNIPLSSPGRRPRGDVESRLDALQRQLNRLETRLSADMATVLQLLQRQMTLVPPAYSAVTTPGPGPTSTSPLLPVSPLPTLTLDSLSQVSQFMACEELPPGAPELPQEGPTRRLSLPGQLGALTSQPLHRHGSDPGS
As to `Nc1nc2c3ccccc3nc(C3CC3)n2n1`, the “hERG current change (%, negative = inhibition) at 1uM” value was found to be 11.7%. Consider `COc1ccccc1-n1c(CCn2nc(C)c(Br)c2C)n[nH]c1=S`, for which the “hERG current change (%, negative = inhibition) at 1uM” value is listed as 11.8%. The same measure for `CCn1nc(C)c(C2C(C#N)=C(N)Oc3n[nH]c(C)c32)c1C` (stereo not shown): 9.87%.

Consider `CC(=O)NC/C(C)=N\Nc1ccc([N+](=O)[O-])cc1`, for which the “hERG current change (%, negative = inhibition) at 1uM” value is on record as -9.38%. `COc1cc(C(C2C(=O)CC(C)(C)CC2=O)C2C(=O)CC(C)(C)CC2=O)cc(OC)c1OC`: the “hERG current change (%, negative = inhibition) at 1uM” value came out at 9.47%. In the case of `O=C(NNC(=O)c1ccccc1C(=O)O)c1ccc(O)cc1` it was 5.97%; in that of `O=C(CCC1CCCC1)Nc1cccn(Cc2ccccc2Br)c1=O`, 5.62%. On to `O=C(c1cc2ccccc2c(=O)o1)N1CCCCCC1`, for which the “hERG current change (%, negative = inhibition) at 1uM” value is 4.53%. Turning to `Cl.Fc1ccccc1COc1ccc(Br)cc1CNCc1ccncc1`, the “hERG current change (%, negative = inhibition) at 1uM” value is -22.4%. In the case of `CC(C)CCNC(=O)C1CCC(CNc2c(N3CCC(C)CC3)c(=O)c2=O)CC1` (stereo not shown) it was 8.49%; in that of `O=S(=O)(Cc1ccccc1)Nc1ccc(S(=O)(=O)N2CCCC2)cc1`, 19.8%; in that of `CCCCn1c(=O)nc2n(-c3ccc(Cl)cc3)c3ccccc3cc-2c1=O`, 13.6%. On to `CCOc1cccc(-c2nn3c(-c4ccccn4)nnc3s2)c1`, for which the “hERG current change (%, negative = inhibition) at 1uM” value is 6.65%.

On to `Cn1ccnc1SCc1cccc([N+](=O)[O-])c1`, for which the “hERG current change (%, negative = inhibition) at 1uM” value came out at 0.244%.

Consider `CCc1nnc(NC(=O)CSc2sc3c(O)cc(=O)[nH]c3c2C#N)s1`, for which the “hERG current change (%, negative = inhibition) at 1uM” value stood at 1.62%. For `CC(Oc1ccc(Br)cc1)C(=O)O/N=C(\N)c1ccncc1` (stereo not shown), the “hERG current change (%, negative = inhibition) at 1uM” value is recorded as -4.91%. For `COc1cc(OC)cc(C(=O)NCCSCc2ccc(Cl)cc2)c1`, the “hERG current change (%, negative = inhibition) at 1uM” value was found to be 7.06%. As for `COCCNc1nc2nonc2nc1N(C)Cc1ccc(C)cc1`, the “hERG current change (%, negative = inhibition) at 1uM” value was 4.35%.

With `CCc1[nH]nc(C(=O)N2CCCC(Nc3cccc(F)c3)C2)c1C` (stereo not shown), the “hERG current change (%, negative = inhibition) at 1uM” value was found to be 11.4%. As for `CC1=CC2=NC(=O)/C(=C\c3cccn3CCOc3ccc(C)c(C)c3)C(=N)N2O1`, the “hERG current change (%, negative = inhibition) at 1uM” value came out at 7.63%. As to `Cc1ccc(C(=O)Nc2nc3ccccc3s2)s1`, the “hERG current change (%, negative = inhibition) at 1uM” value was 3.25%. The same measure for `COC(=O)c1ccccc1NC(=O)c1ccccc1NS(C)(=O)=O`: 7.56%. The same measure for `COC(=O)c1ccc(COC(=O)c2cnc(Cl)c(Cl)c2)cc1`: 15.5%; for `CCn1ccnc1CNC(=O)c1cc(COc2ccc(F)cc2F)on1`: 7.9%; for `CCN1CCN(CCNC(=O)c2ccc3c(c2)N(Cc2ccc(F)cc2)C(=O)c2ccccc2S3=O)CC1` (stereo not shown): 10.7%.
